B1: PhoQ; a variant is named by its letters at X, in order, P23837 (parent)
chain: MKKLLRLFFPLSLRVRFLLATAAVVLVLSLAYGMVALIGYSVSFDKTTFRLLRGESNLFYTLAKWENNKLHVELPENIDKQSPTMTLIYDENGQLLWAQRDVPWLMKMIQPDWLKSNGFHEIEADVNDTSLLLSGDHSIQQQLQEVREDDDDAEMTHSVAVNVYPATSRMPKLTIVVVDTIPVELKSSYMVWSWFIYVLSANLLLVIPLLWVAAWWSLRPIEALAKEVRELEEHNRELLNPATTRELTSLVRNLNRLLKSERERYDKYRTTLTDLTHSLKTPLXXLQXXLRSLRSEKMSVSDAEPVMLEQISRISQQIGYYLHRASMRGGTLLSRELHPVAPLLDNLTSALNKVYQRKGVNISLDISPEISFVGEQNDFVEVMGNVLDNACKYCLEFVEISARQTDEHLYIVVEDDGPGIPLSKREVIFDRGQRVDTLRPGQGVGLAVAREITEQYEGKIVAGESMLGGARMEVIFGRQHSAPKDE

This is one part of the list.

The variants in the experiment derive from B1. The experiment is described as follows: enrichment ratio after two sorts for PhoP signalling (ratio (wild type AVST 3.29)); higher = more functional. The conditions noted are these: with PhoP (E. coli).
On to IWAG, for which the enrichment ratio is no more than 0.25.

As to SEKD, the enrichment ratio is no more than 0.25. With EPDC, the enrichment ratio is no more than 0.25. In the case of GDKP, the enrichment ratio is no more than 0.25. To TDTY belongs no more than 0.25; to TQCH, 9.18.

As to FMYN, the enrichment ratio is no more than 0.25. Then RCWN, with no more than 0.25; and YARD, with no more than 0.25.

Consider FDID, for which the enrichment ratio was no more than 0.25. Regarding RDPY, the enrichment ratio was no more than 0.25.

Consider RMVG, for which the enrichment ratio is no more than 0.25. Then PWDN, with no more than 0.25; and GVLL, with 10.7; and AGAY, with 7.02. To WRFS belongs no more than 0.25; to SLGV, no more than 0.25. To YIGL belongs 0.339; to KDTH, no more than 0.25; to QHQY, no more than 0.25. With VDMR, the enrichment ratio is no more than 0.25. For the variant LNYR, the enrichment ratio was no more than 0.25. SMCF: the enrichment ratio worked out at 7.74. To GCTN belongs no more than 0.25; to LVHK, no more than 0.25.

Turning to GLNF, the enrichment ratio was no more than 0.25. Regarding PEIG, the enrichment ratio was no more than 0.25. To EIFF belongs no more than 0.25.

Consider VWSQ, for which the enrichment ratio is no more than 0.25. Then QFQR, with no more than 0.25; and FYKM, with no more than 0.25; and ICIF, with no more than 0.25. To VGFY belongs no more than 0.25.

For SASM, the enrichment ratio was 10.2. Then VNED, with no more than 0.25; and VPSA, with no more than 0.25.

Consider GEMS, for which the enrichment ratio stood at 4.64. With SAEF, the enrichment ratio is no more than 0.25. To NMDL belongs no more than 0.25; to IGVE, no more than 0.25. As for MMLQ, the enrichment ratio was no more than 0.25. Turning to RCWS, the enrichment ratio is no more than 0.25.

Turning to TYIT, the enrichment ratio is no more than 0.25.

Take TRYT: the enrichment ratio is no more than 0.25. As to LNHA, the enrichment ratio was no more than 0.25. To DHEM belongs no more than 0.25; to ENMC, no more than 0.25. As to NNQS, the enrichment ratio is no more than 0.25. To KLCV belongs no more than 0.25; to AMRS, no more than 0.25. To PMKA belongs no more than 0.25; to GLPA, 0.356; to RAFI, no more than 0.25.

With IRGD, the enrichment ratio was no more than 0.25. Then IIYC, with no more than 0.25.

With FGMS, the enrichment ratio was 0.618.

Consider TITF, for which the enrichment ratio is no more than 0.25.

Take LTRR: the enrichment ratio was no more than 0.25. On to QPPP, for which the enrichment ratio was no more than 0.25. For YLNI, the enrichment ratio was no more than 0.25. As to FNTM, the enrichment ratio is no more than 0.25. For the variant TTQF, the enrichment ratio worked out at 22.7.

Regarding GDIL, the enrichment ratio was found to be 8.6. Consider LKAR, for which the enrichment ratio is no more than 0.25. As to DELD, the enrichment ratio came to 2.25. Take ECDR: the enrichment ratio is no more than 0.25.

For the variant EFVR, the enrichment ratio is no more than 0.25. To QVCR belongs no more than 0.25; to GSAC, no more than 0.25; to VMDH, no more than 0.25. To GYST belongs no more than 0.25. On to FGRG, for which the enrichment ratio is no more than 0.25.

As for QYSW, the enrichment ratio is no more than 0.25. As for RGTF, the enrichment ratio is no more than 0.25. Regarding ITQR, the enrichment ratio was no more than 0.25. Consider ETGD, for which the enrichment ratio was no more than 0.25. Then FECM, with 5. In the case of GINI, the enrichment ratio was no more than 0.25.

Consider WDAL, for which the enrichment ratio is no more than 0.25. Take KMMN: the enrichment ratio is no more than 0.25. With NSGT, the enrichment ratio is no more than 0.25. Then FSVK, with no more than 0.25. Then VPQE, with no more than 0.25; and NHHW, with no more than 0.25; and DNPP, with no more than 0.25.

In the case of VNPN, the enrichment ratio was no more than 0.25. Turning to PIFE, the enrichment ratio was no more than 0.25.

GKFL: the enrichment ratio is no more than 0.25. To KQCN belongs no more than 0.25; to KNLH, no more than 0.25; to YEGE, no more than 0.25. To RGRN belongs no more than 0.25; to IFDG, no more than 0.25; to RNFM, no more than 0.25. Turning to VCTH, the enrichment ratio was no more than 0.25.

SAHM: the enrichment ratio was no more than 0.25. For the variant RDQM, the enrichment ratio was no more than 0.25.

For EETS, the enrichment ratio is no more than 0.25. Take GAHK: the enrichment ratio is no more than 0.25. Then NFAM, with no more than 0.25. For NKNN, the enrichment ratio was no more than 0.25. Turning to PQSN, the enrichment ratio is no more than 0.25. Then PGLD, with no more than 0.25. Take VEEC: the enrichment ratio is no more than 0.25. Turning to GWRC, the enrichment ratio was no more than 0.25.

YCVG: the enrichment ratio is no more than 0.25. Then HSHP, with no more than 0.25; and EPSM, with no more than 0.25. To WPYR belongs no more than 0.25; to TPRS, no more than 0.25. On to HPLS, for which the enrichment ratio is no more than 0.25. As for PFYI, the enrichment ratio is no more than 0.25. Then ICWA, with no more than 0.25. Turning to PNFV, the enrichment ratio is no more than 0.25.

Take AHDH: the enrichment ratio is no more than 0.25.

As to WVAF, the enrichment ratio was no more than 0.25. To TMMT belongs 22.9; to FDSY, no more than 0.25. Then SLLA, with 8.07; and VTGG, with no more than 0.25; and PDYK, with no more than 0.25.

Consider AFRM, for which the enrichment ratio was no more than 0.25. To RRHG belongs no more than 0.25; to HPCN, no more than 0.25. EMFT: the enrichment ratio is no more than 0.25.

Regarding YHYD, the enrichment ratio was no more than 0.25. Regarding KWLD, the enrichment ratio is no more than 0.25. With KPCE, the enrichment ratio is no more than 0.25. Then LYRI, with no more than 0.25; and PCGH, with no more than 0.25. To LSLN belongs no more than 0.25; to YPQQ, no more than 0.25; to HNHK, no more than 0.25.

Turning to FHRS, the enrichment ratio was no more than 0.25. Regarding TEET, the enrichment ratio was no more than 0.25. To TVPW belongs no more than 0.25; to AEWP, no more than 0.25; to AYVY, no more than 0.25. Regarding VQIH, the enrichment ratio was no more than 0.25. As to IGKN, the enrichment ratio is no more than 0.25. Then PGAK, with no more than 0.25; and GGTW, with no more than 0.25. Then DGYD, with no more than 0.25; and VECM, with 0.698; and ISAY, with no more than 0.25. For the variant KYRT, the enrichment ratio is no more than 0.25. Then HDFD, with no more than 0.25; and IEAD, with no more than 0.25. To LKWS belongs no more than 0.25.

As for PITC, the enrichment ratio is no more than 0.25. Then ASKK, with no more than 0.25; and WQGN, with no more than 0.25.

On to NIQL, for which the enrichment ratio was no more than 0.25. To PRMA belongs no more than 0.25; to HWGK, no more than 0.25.

On to YSGK, for which the enrichment ratio is no more than 0.25. To FTGE belongs no more than 0.25; to HTCQ, no more than 0.25; to GMFV, no more than 0.25.

Turning to WQGA, the enrichment ratio was no more than 0.25. Turning to GHMK, the enrichment ratio is no more than 0.25. IVVV: the enrichment ratio is no more than 0.25. To AIAS belongs 9.4. With FGNS, the enrichment ratio is no more than 0.25.

On to LVAI, for which the enrichment ratio was no more than 0.25. Then NEFC, with no more than 0.25. Then HYYH, with no more than 0.25. To FKKC belongs no more than 0.25; to TAVM, 2.01. Take WVWK: the enrichment ratio was no more than 0.25. On to LPPG, for which the enrichment ratio was no more than 0.25. As for TAVD, the enrichment ratio is no more than 0.25.

As to VWVT, the enrichment ratio is no more than 0.25. AWWA: the enrichment ratio was no more than 0.25. Then YQSF, with no more than 0.25; and SHIY, with 0.542; and LIAP, with no more than 0.25. Take RSIN: the enrichment ratio was no more than 0.25. Regarding VVII, the enrichment ratio is no more than 0.25.

Take EFEC: the enrichment ratio was no more than 0.25. Then GVLH, with 10.3; and VNFK, with no more than 0.25. Turning to PRAW, the enrichment ratio is no more than 0.25.

Consider GVSY, for which the enrichment ratio is no more than 0.25. Then AHIY, with no more than 0.25; and MKHM, with no more than 0.25. Regarding EDSW, the enrichment ratio was no more than 0.25. Consider GQTN, for which the enrichment ratio was no more than 0.25. To EKFW belongs no more than 0.25; to FGRY, no more than 0.25; to RPMD, no more than 0.25. Then NTGH, with no more than 0.25. To PVIV belongs no more than 0.25; to SVWL, no more than 0.25; to DCYD, no more than 0.25.

The values are drawn from a collection of fitness landscapes (doi:10.1126/science.1257360).
